# Data as given in the supplement of paper PMC8728848.
# Some of the results follow.
# B1: AFL5 (Aspergillus fumigatus), Q4WB00 (protein)
# chain: MDNFMEMTKKLGHQPELLRLRALDATYDDALEGKLVVAPLDMSEPGKKILDSGTADGTWLRNVRSKQSVPHDYYGSDVEGELFPKDPDGITYFAHSFKDPWPQQYLGFFDLVHIRGSLAGSAPEGPAPVIQNLTTLLKPGGWVQLMEMNAFSPPPNGPAMTDFAKMASEMFTGIGVGDFANNNKSMLEDAGLKNVQEKRVIVNLGKKAKPELHDQSIHGVTGPIVPLTSVARTVKSSFTGEQLDALPARVKEELETEGGQVEMIIAFGQKA
# How the values were obtained:
# Experiment in all cases: glycan array binding signal (z-score within array); higher = stronger binding
# Conditions in all cases: glycan notation: IUPAC condensed, linker removed
# [1] = target: GlcNAc(b1-3)Gal(b1-4)GlcNAc(b1-3)Gal(b1-4)GlcNAc(b1-3)Gal(b1-4)GlcNAc(b1-3)Gal(b1-4)GlcNAc(b1-2)[GlcNAc(b1-3)Gal(b1-4)GlcNAc(b1-3)Gal(b1-4)GlcNAc(b1-3)Gal(b1-4)GlcNAc(b1-3)Gal(b1-4)GlcNAc(b1-6)]Man(a1-6)[GlcNAc(b1-3)Gal(b1-4)GlcNAc(b1-3)Gal(b1-4)GlcNAc(b1-3)Gal(b1-4)GlcNAc(b1-3)Gal(b1-4)GlcNAc(b1-2)Man(a1-3)]Man(b1-4)GlcNAc(b1-4)[Fuc(a1-6)]GlcNAc
# In short: (§1)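 Glycan array data came from 3228 arrays in the Consortium for Functional Glycomics database, and only arrays with an available protein sequence were kept. Glycan names were put into IUPAC-condensed notation, and columns mapping to the same glycan were averaged. The binding signal is a within-array Z-score, averaged across arrays of one protein sequence run at different concentrations or buffers and across linkers. A negative Z-score can be read as non-binding.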
# [2] = target: GlcNAc(b1-3)Gal(b1-4)GlcNAc(b1-3)Gal(b1-4)GlcNAc(b1-3)GalNAc
# In short: as §1
# [3] = target: GlcNAc(b1-3)Gal(b1-4)GlcNAc(b1-3)GalNAc
# In short: as §1
# [4] = target: GlcNAc(b1-3)Gal(b1-4)GlcNAc(b1-3)[GlcNAc(b1-3)Gal(b1-4)GlcNAc(b1-3)]GalNAc
# In short: as §1
# [5] = target: GlcNAc(b1-3)Gal(b1-4)GlcNAc(b1-6)[Gal(b1-3)]GalNAc
# In short: as §1
# [6] = target: GlcNAc(b1-3)Gal(b1-4)GlcNAc(b1-6)[GlcNAc(b1-3)Gal(b1-3)]GalNAc
# In short: as §1
# [7] = target: GlcNAc(b1-3)Gal(b1-4)GlcNAc(b1-6)[GlcNAc(b1-3)]Gal(b1-4)GlcNAc
# In short: as §1
# GlcNAc(b1-3)GalNAc = target: GlcNAc(b1-3)GalNAc
# In short: as §1
# GlcNAc(b1-3)Man = target: GlcNAc(b1-3)Man
# In short: as §1
# [8] = target: GlcNAc(b1-3)[GlcNAc(b1-4)][GlcNAc(b1-6)]GlcNAc
# In short: as §1
# [9] = target: GlcNAc(b1-3)[GlcNAc(b1-6)]Gal(b1-4)GlcNAc
# In short: as §1
# [10] = target: GlcNAc(b1-3)[GlcNAc(b1-6)]GalNAc
# In short: as §1
# [11] = target: GlcNAc(b1-4)Gal(b1-4)GlcNAc
# In short: as §1
# GlcNAc(b1-4)GlcNAc = target: GlcNAc(b1-4)GlcNAc
# In short: as §1
# [12] = target: GlcNAc(b1-4)GlcNAc(b1-4)GlcNAc
# In short: as §1
# [13] = target: GlcNAc(b1-4)GlcNAc(b1-4)GlcNAc(b1-4)GlcNAc(b1-4)GlcNAc
# In short: as §1
# [14] = target: GlcNAc(b1-4)GlcNAc(b1-4)GlcNAc(b1-4)GlcNAc(b1-4)GlcNAc(b1-4)GlcNAc
# In short: as §1
# [15] = target: GlcNAc(b1-4)[GlcNAc(b1-6)]GalNAc
# In short: as §1
# [16] = target: GlcNAc(b1-6)Gal(b1-4)GlcNAc
# In short: as §1
# GlcNAc(b1-6)GalNAc = target: GlcNAc(b1-6)GalNAc
# In short: as §1
# [17] = target: GlcNAc6S(b1-3)Gal(b1-4)GlcNAc
# In short: as §1
# Kdn(a2-3)Gal(b1-3)GalNAc = target: Kdn(a2-3)Gal(b1-3)GalNAc
# In short: as §1
# Kdn(a2-3)Gal(b1-3)GlcNAc = target: Kdn(a2-3)Gal(b1-3)GlcNAc
# In short: as §1
# Kdn(a2-3)Gal(b1-4)Glc = target: Kdn(a2-3)Gal(b1-4)Glc
# In short: as §1
# Kdn(a2-3)Gal(b1-4)GlcNAc = target: Kdn(a2-3)Gal(b1-4)GlcNAc
# In short: as §1
# [18] = target: Kdn(a2-3)Gal(b1-4)[Fuc(a1-3)]GlcNAc
# In short: as §1
# Kdn(a2-6)Gal(b1-4)GlcNAc = target: Kdn(a2-6)Gal(b1-4)GlcNAc
# In short: as §1
# [19] = target: Man(a1-2)Man(a1-2)Man(a1-3)Man
# In short: as §1
# [20] = target: Man(a1-2)Man(a1-2)Man(a1-6)[Man(a1-3)]Man
# In short: as §1
# Man(a1-2)Man(a1-3)Man = target: Man(a1-2)Man(a1-3)Man
# In short: as §1
# [21] = target: Man(a1-2)Man(a1-3)[Man(a1-2)Man(a1-6)]Man
# In short: as §1
# [22] = target: Man(a1-2)Man(a1-3)[Man(a1-2)Man(a1-6)]Man(a1-6)[Man(a1-2)Man(a1-2)Man(a1-3)]Man
# In short: as §1
# [23] = target: Man(a1-2)Man(a1-3)[Man(a1-2)Man(a1-6)]Man(a1-6)[Man(a1-2)Man(a1-2)Man(a1-3)]Man(b1-4)GlcNAc(b1-4)GlcNAc
# In short: as §1
# [24] = target: Man(a1-2)Man(a1-3)[Man(a1-6)]Man(a1-6)[Man(a1-2)Man(a1-3)]Man(b1-4)GlcNAc(b1-4)GlcNAc
# In short: as §1
# [25] = target: Man(a1-2)Man(a1-6)[Man(a1-3)]Man(a1-6)[Man(a1-2)Man(a1-2)Man(a1-3)]Man
# In short: as §1
# [26] = target: Man(a1-2)Man(a1-6)[Man(a1-3)]Man(a1-6)[Man(a1-2)Man(a1-2)Man(a1-3)]Man(b1-4)GlcNAc(b1-4)GlcNAc
# In short: as §1
# Man(a1-3)[Man(a1-6)]Man = target: Man(a1-3)[Man(a1-6)]Man
# In short: as §1
binder,measurement,setting,value
B1,glycan array binding signal (z-score),[1],0.383
same,glycan array binding signal (z-score),[2],0.11
same,glycan array binding signal (z-score),[3],0.052
same,glycan array binding signal (z-score),[4],0.653
same,glycan array binding signal (z-score),[5],0.028
same,glycan array binding signal (z-score),[6],0.134
same,glycan array binding signal (z-score),[7],-0.575
same,glycan array binding signal (z-score),GlcNAc(b1-3)GalNAc,-0.251
same,glycan array binding signal (z-score),GlcNAc(b1-3)Man,0.386
same,glycan array binding signal (z-score),[8],-0.493
same,glycan array binding signal (z-score),[9],-0.206
same,glycan array binding signal (z-score),[10],-0.216
same,glycan array binding signal (z-score),[11],0.475
same,glycan array binding signal (z-score),GlcNAc(b1-4)GlcNAc,-0.156
same,glycan array binding signal (z-score),[12],-0.623
same,glycan array binding signal (z-score),[13],0.1
same,glycan array binding signal (z-score),[14],-0.321
same,glycan array binding signal (z-score),[15],-0.569
same,glycan array binding signal (z-score),[16],0.303
same,glycan array binding signal (z-score),GlcNAc(b1-6)GalNAc,0.056
same,glycan array binding signal (z-score),[17],-0.18
same,glycan array binding signal (z-score),Kdn(a2-3)Gal(b1-3)GalNAc,0.195
same,glycan array binding signal (z-score),Kdn(a2-3)Gal(b1-3)GlcNAc,-0.612
same,glycan array binding signal (z-score),Kdn(a2-3)Gal(b1-4)Glc,-0.078
same,glycan array binding signal (z-score),Kdn(a2-3)Gal(b1-4)GlcNAc,0.177
same,glycan array binding signal (z-score),[18],-0.531
same,glycan array binding signal (z-score),Kdn(a2-6)Gal(b1-4)GlcNAc,0.092
same,glycan array binding signal (z-score),[19],-0.669
same,glycan array binding signal (z-score),[20],0.004
same,glycan array binding signal (z-score),Man(a1-2)Man(a1-3)Man,-0.59
same,glycan array binding signal (z-score),[21],-0.753
same,glycan array binding signal (z-score),[22],-0.413
same,glycan array binding signal (z-score),[23],-0.348
same,glycan array binding signal (z-score),[24],-0.906
same,glycan array binding signal (z-score),[25],-0.532
same,glycan array binding signal (z-score),[26],-0.225
same,glycan array binding signal (z-score),Man(a1-3)[Man(a1-6)]Man,0.203
